Consider five molecules from paper PMC4752459.

Sequences of proteins named here, by UniProt entry; tags and fusion partners are left off. A change or cut given only in a name is not applied to a line headed by its entry.
UniProt P32458: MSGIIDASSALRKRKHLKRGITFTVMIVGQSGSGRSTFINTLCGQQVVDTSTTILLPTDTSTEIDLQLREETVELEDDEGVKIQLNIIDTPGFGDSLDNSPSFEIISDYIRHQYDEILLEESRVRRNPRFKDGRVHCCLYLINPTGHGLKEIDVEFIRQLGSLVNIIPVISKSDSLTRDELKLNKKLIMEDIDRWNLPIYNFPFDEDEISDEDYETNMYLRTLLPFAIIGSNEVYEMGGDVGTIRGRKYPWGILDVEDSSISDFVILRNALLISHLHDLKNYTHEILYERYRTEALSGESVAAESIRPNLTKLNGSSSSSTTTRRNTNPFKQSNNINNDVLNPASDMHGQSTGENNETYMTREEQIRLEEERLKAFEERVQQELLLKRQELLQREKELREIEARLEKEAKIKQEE
UniProt P32468: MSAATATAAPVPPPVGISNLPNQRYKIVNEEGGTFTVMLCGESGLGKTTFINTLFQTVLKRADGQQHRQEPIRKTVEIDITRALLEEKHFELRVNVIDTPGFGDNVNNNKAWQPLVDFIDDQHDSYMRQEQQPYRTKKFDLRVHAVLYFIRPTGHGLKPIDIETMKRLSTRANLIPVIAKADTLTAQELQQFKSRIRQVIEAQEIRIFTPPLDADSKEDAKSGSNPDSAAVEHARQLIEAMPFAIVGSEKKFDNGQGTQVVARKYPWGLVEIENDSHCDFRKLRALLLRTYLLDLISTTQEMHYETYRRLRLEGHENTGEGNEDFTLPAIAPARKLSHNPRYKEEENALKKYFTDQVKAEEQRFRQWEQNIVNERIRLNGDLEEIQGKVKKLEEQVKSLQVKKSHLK
UniProt P32457: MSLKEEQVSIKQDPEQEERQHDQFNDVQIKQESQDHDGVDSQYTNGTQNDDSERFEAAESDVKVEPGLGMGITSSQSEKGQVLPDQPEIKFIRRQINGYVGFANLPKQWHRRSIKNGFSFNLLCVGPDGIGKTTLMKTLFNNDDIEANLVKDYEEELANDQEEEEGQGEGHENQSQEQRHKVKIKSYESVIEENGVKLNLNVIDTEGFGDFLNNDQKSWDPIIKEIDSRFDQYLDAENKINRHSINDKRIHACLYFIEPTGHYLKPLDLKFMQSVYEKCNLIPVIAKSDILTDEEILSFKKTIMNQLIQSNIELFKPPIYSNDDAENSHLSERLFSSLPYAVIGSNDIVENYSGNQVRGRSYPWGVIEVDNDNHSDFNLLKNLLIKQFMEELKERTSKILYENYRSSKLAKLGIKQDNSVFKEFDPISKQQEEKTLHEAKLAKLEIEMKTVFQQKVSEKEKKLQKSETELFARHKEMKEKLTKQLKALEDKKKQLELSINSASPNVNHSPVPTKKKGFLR
UniProt P25342: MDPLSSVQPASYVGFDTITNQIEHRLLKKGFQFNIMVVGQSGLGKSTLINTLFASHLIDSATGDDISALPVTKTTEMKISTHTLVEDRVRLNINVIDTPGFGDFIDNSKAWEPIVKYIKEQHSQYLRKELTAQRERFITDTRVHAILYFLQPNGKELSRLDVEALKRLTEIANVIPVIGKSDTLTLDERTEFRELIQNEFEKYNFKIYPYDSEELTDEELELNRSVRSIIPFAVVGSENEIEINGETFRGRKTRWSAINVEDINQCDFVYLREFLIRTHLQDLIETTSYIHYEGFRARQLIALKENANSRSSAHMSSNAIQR

The chains are these.
B1: Bud4-TAP (protein, UniProt P47136 1-1447)
chain: MHDAESTVDSLLKEIDNEMEQTKSNITQNGSEDTPHNWKLPLQEIGDDTMEMLVKHNTRSNATENSRGRSPSKMSTISNESLNLGLLRVNSELEESPAAVHQERIKNSVANGALGHANSPKVLNNLKNMAQDIDKLARDEEKPVKLSSSPLKFTLKSTQPLLSYPESPIHRSSIEIETNYDDEDEEEEDAYTCLTQSPQILHSPSRIPITNAVSINKLNLDFTLNPNESDKSLVSDTSVDSTGRELDTKTIPELPFCMSSTPEMTPVDEKCNLPSKLLNTSNNSHSDSRSPTASVEDLNISTNLPGADSSQNNPVTTDADALIENDVVRDLQQNMEHIDDAFDEKKVLDEGCSNEPVTFLGENDTRSIVYSNKGTNANVQEFSQEDSLAHSEPKFKDLNATSDDVWNEDKETDANISTSTKSEESYIADYKVTRQEDWDTKKLHQESEHANEQPAIIPQKDSSEETFTELNNESEFQRNFKDGEEYRIVQHEESLYGQRTKSPEENIINGSEIGVDHGEAAEVNEPLAKTSAEEHDLSSSCEDQSVSEARNKDRIEEKEVETKDENIETEKDESEYHKVEENEEPEHVPLLPPLPRWEEIQFNEPFIDENDTSNDSIDLTRSMKPSDYISIWHIQEEEIKSNSPESIANSQFSQQSSITTASTVDSKKDNGSTSFKFKPRIVSRSRIYNPKSRVSSLNYYDNEDYILSNSEWNALDPMRRNTLISKRIQDNIRTQKGHAPLIRPSIMKLNGEDSGFQNHFLEVEQPQEHENIPLSTHLSEQDITTNVGLDEQKLPTNTQDEAEISIREIESAGDITFNRGDLLSLSFDEELGQDFANFLDALDHDSTSFNHGPDDSSSFQRDSSKKSFNSLWESSYELKPPPSIRKQPIAPDVLQKLLESDTKDDADLEKIREERITEPRTGLGIGMLKTPVKDVSIALAASIKGYEASFSDTDSRPEGMNNSDAITLNMFDDFEEDKMTPSTPVRSISPIKRHVSSPFKVVKAGNKQENNEINIKAEEEIEPMTQQETDGLKQDIPPLLAQTKDNVEAKEETITQLEEPQDVEQEFPDMGTLYLSIKAISTLALYGTKSHRATYAIVFDNGENVVQTPWESLPYDGNIRINKEFELPIDFKGKAETSSASSERDSYKKCVITLKCKYEKPRHELVEIVDKVPVGKSFFGKTKYKFEKKYVQKKPKQDEWDYLFAQDGSFARCEIEINEEFLKNVAFNTSHMHYNMINKWSRIADKIHGSKRLYELPRKAPHKVASLDVEACFLERTSAFEQFPKQFSLVNKIVSKYKLQQNIYKEGYLLQDGGDLKGKIENRFFKLHGSQLSGYHEISRKAKIDINLLKVTKVLRNEDIQADNGGQRNFTDWVLFNECFQLVFDDGERITFNAECSNEEKSDWYNKLQEVVELNVFHQPWVKKYCEKLAEEEKTRTTGHNLKQDFN
B2: Sla2-TAP (protein, UniProt P33338 1-968)
chain: MSRIDSDLQKALKKACSVEETAPKRKHVRACIVYTWDHQSSKAVFTTLKTLPLANDEVQLFKMLIVLHKIIQEGHPSALAEAIRDRDWIRSLGRVHSGGSSYSKLIREYVRYLVLKLDFHAHHRGFNNGTFEYEEYVSLVSVSDPDEGYETILDLMSLQDSLDEFSQIIFASIQSERRNTECKISALIPLIAESYGIYKFITSMLRAMHRQLNDAEGDAALQPLKERYELQHARLFEFYADCSSVKYLTTLVTIPKLPVDAPDVFLINDVDESKEIKFKKREPSVTPARTPARTPTPTPPVVAEPAISPRPVSQRTTSTPTGYLQTMPTGATTGMMIPTATGAANAIFPQATAQMQPDFWANQQAQFANEQNRLEQERVQQLQQQQAQQELFQQQLQKAQQDMMNMQLQQQNQHQNDLIALTNQYEKDQALLQQYDQRVQQLESEITTMDSTASKQLANKDEQLTALQDQLDVWERKYESLAKLYSQLRQEHLNLLPRFKKLQLKVNSAQESIQKKEQLEHKLKQKDLQMAELVKDRDRARLELERSINNAEADSAAATAAAETMTQDKMNPILDAILESGINTIQESVYNLDSPLSWSGPLTPPTFLLSLLESTSENATEFATSFNNLIVDGLAHGDQTEVIHCVSDFSTSMATLVTNSKAYAVTTLPQEQSDQILTLVKRCAREAQYFFEDLMSENLNQVGDEEKTDIVINANVDMQEKLQELSLAIEPLLNIQSVKSNKETNPHSELVATADKIVKSSEHLRVDVPKPLLSLALMIIDAVVALVKAAIQCQNEIATTTSIPLNQFYLKNSRWTEGLISAAKAVAGATNVLITTASKLITSEDNENTSPEQFIVASKEVAASTIQLVAASRVKTSIHSKAQDKLEHCSKDVTDACRSLGNHVMGMIEDDHSTSQQQQPLDFTSEHTLKTAEMEQQVEILKLEQSLSNARKRLGEIRRHAYYNQDDD
B3: Syp1-TAP (protein, UniProt P25623 1-870)
chain: MTEQRTKYADSILTTKSPYEATETIRIRLSQVKLLNKDFYLLFKELANLKRNYAQQLRKIIAENEDITKILNAQMIESNVLTPQEMSAFRFNSLGELRNVWDTVIEELKSDLKSSTEYYNTLDQQVVRELKESVENNTSWRESKDLHSKLSKNAASIEHYSKNNENSSHLEEARRQWDQQSPYLFELFETIDYNRLDTLKNCMLRFQTSFSDYLLNTTKECETVMTKFLAFEPQSEIDRFAKDASQYNFQLSSSSKEVVPNNASPASATGARPVSVSNGAANTEREKKSPQKDKRKSAFGNIGHRLASASSSLTHNDLMNNEFSDSTNNSSLKSKKSSHTLRSKVGSIFGRNKTKNKRQQQSSSNSHIQASITETPNNSSTRVSSTATSSIYQKQRRPTYSSSKSNNWTPGEASDTPPLPPHATPKNVDAPVTADTPPAQTFTPSEVPPSTPQQSSPPTAKEPDSSNLPKTVPISISQPPLQPQSKTKPLPVEPASPSISLPTATVDNQPSGQVDSRPLHIRAPALPPSRKQNFIHNRDSQLYDSLPNHGSGATPTSSSLSSIPQERPVSTLSSQITGELRELNPQATGSSTSLVGQSLFQHSSLDTSQFGLNASIAEVLNASFKDGMLQNSQLIGEIALNYLPNSVMNSPLPIGINLRINNGAKFEKVILNQAFIERVAPEEFKVNPSFIDSRTLGAIKYSIKEPIAPIVIHPVWRFESHQASVVLTVKMSPSLPDEISQIVIEDLVVFVNIDGANATSALSKPQGSFSKEKKRITWRFKEPVVLTRNGEGQRLIARFITDGLAHESAKGVITKFTISETDNVALPHSGAGSGITLTCQELDENNPFGGEWLDVNTKRTLTTGNYHGLA
B4: Rlp7-TAP (protein, UniProt P40693 1-322)
chain: MSSTQDSKAQTLNSNPEILLRKRRNADRTRIERQELAKKKREEQIKKKRSNKNKFVRAESIVAKTLATSREKERIKRVSILEDKKAKNETQHIASGKDFILKITEKANGAEENSVDLEETEEEEDDGLIREKTTYDGKPALLFIVRVRGPLAVNIPNKAFKILSLLRLVETNTGVFVKLTKNVYPLLKVIAPYVVIGKPSLSSIRSLIQKRGRIIYKGENEAEPHEIVLNDNNIVEEQLGDHGIICVEDIIHEIATMGESFSVCNFFLQPFKLNREVSGFGSLNRLRKIKQREAESRTRQFSNAATAPVIEVDIDSLLAKLN
B5: Ste20-TAP (protein, UniProt Q03497 1-939)
chain: MSNDPSAVSELPDKDSLDNGISNDNERAMGGNGDGGDGLRLPRTTGTLNVNALQKGTNAAHEAGGYKSMDPAKNAETTNDDDNNVVSLDDPIQFTRVSSSSVISGMSSSMSPHSNIDETKSLEAVTPNINTSNITPDHSADNTFSTINASESDHQFNDTLLSKLSLTDSTETIENNATVKHQQPVASSTVNSNKSSTDIRRATPVSTPVISKPSMTTTPRQINSASHSLSNPKHKQHKPKVKPSKPEAKSKPVSVKKSFPSKNPLKNSSPPKKQTEKSYYSSSSKKRKSGSNSGTLRMKDVFTSFVQNIKRNSQDDKRASSSSNNSSSSSITTALRISTPYNAKHIHHVGVDSKTGEYTGLPEEWEKLLTSSGISKREQQQNMQAVMDIVKFYQDVTETNGEDKMFKTFNTTTGLPGSPQVSTPPANSFNKFPPSTSDSHNYGSRTGTPMSNHVMSPTLNTDSSSANGKFIPSRPAPKPPSSASASAPIIKSPVMNSAANVSPLKQTHAPTTPNRTSPNRSSISRNATLKKEEQPLPPIPPTKSKTSPIISTAHTPQQVAQSPKAPAQETVTTPTSKPAQARSLSKELNEKKREERERRKKQLYAKLNEICSDGDPSTKYANLVKIGQGASGGVYTAYEIGTNVSVAIKQMNLEKQPKKELIINEILVMKGSKHPNIVNFIDSYVLKGDLWVIMEYMEGGSLTDVVTHCILTEGQIGAVCRETLSGLEFLHSKGVLHRDIKSDNILLSMEGDIKLTDFGFCAQINELNLKRTTMVGTPYWMAPEVVSRKEYGPKVDIWSLGIMIIEMIEGEPPYLNETPLRALYLIATNGTPKLKEPENLSSSLKKFLDWCLCVEPEDRASATELLHDEYITEIAEANSSLAPLVKLARLKKVAENMDADEDNDDDNDNEHINKTNNCDDNNDSKETVNLDVTEDDKQK

These are yes or no findings as the source states them, for the method shown. Binding seen in cells or lysates may run through a third protein. Some results given as binding are weak or reduced against the parent protein; the word gives no strength.

In this assay the target is recombinant SNAP-tagged yeast septin rods (S. cerevisiae) (UniProt P32458+P32468+P32457+P25342). In words: pull-down; SNAP-tagged septin rods coupled to benzylguanine-Sepharose, blocked with BSA, incubated with yeast extract 2 h at 8°C; 50 mM Tris pH 8.0, 300 mM NaCl; 6his-SNAP beads as control; Western blot with anti-protein A or anti-GFP; only the target purified. Background: Immunoblotting shows a protein as a band on a membrane.
For B1, the binding result was “binds”.

B2: the binding entry is given as “binds”.

In the case of B3, the binding entry is reported as “binds”.

Take B4: the binding entry is recorded as “no binding”.

Turning to B5, the binding result is recorded as “binds”.
